Test results published in the supplement of paper PMC10369915.
The list shows a part of the results. Rule as the data show it: active = 3.2 or more and inactive = the rest. Only a few entries rise above the background.

B1: WWOX_Y293 (peptide)
chain: WAMLAYNRSKL
B2: XPA_Y257_L252V (peptide)
chain: VEDDMYRKTCT
B3: XPA_Y257_M256V (peptide)
chain: LEDDVYRKTCT
B4: XPC_Y676 (peptide)
chain: RGEAVYSRDCV
B5: XPNPEP3_Y455_G453C (peptide)
chain: IEPCIYIPEDD
B6: XRCC1_Y515_P514L (peptide)
chain: NGEDLYAGSTD
B7: XRCC5_Y416 (peptide)
chain: HIKHNYECLVY
B8: XRCC5_Y416_I412V_YF (peptide)
chain: HVKHNYECLVF
B9: XRCC5_Y416_YF (peptide)
chain: HIKHNYECLVF
B10: YES1_Y159_W158L (peptide)
chain: QAEELYFGKMG
B11: YES1_Y194 (peptide)
chain: TTKGAYSLSIR
B12: YIPF7_Y59_A54T_YF (peptide)
chain: TFGNLYGSRKQ
B13: YWHAG_Y130_D129E (peptide)
chain: KMKGEYYRYLA
B14: YWHAG_Y130_Y133S_YF (peptide)
chain: KMKGDYFRSLA
B15: YWHAG_Y130_YF (peptide)
chain: KMKGDYFRFLA
B16: YWHAG_Y131 (peptide)
chain: MKGDYYRYLAE
B17: YWHAG_Y131_D129E_YF (peptide)
chain: MKGEFYRFLAE
B18: YWHAG_Y131_Y133S_YF (peptide)
chain: MKGDFYRSLAE
B19: YWHAG_Y131_YF (peptide)
chain: MKGDFYRFLAE

target: SHP2 C-SH2 domain E139D; experiment: enrichment score (SH2-bound / input frequency) (ratio); bacterial display of known human phosphotyrosine sites (pTyr-Var adds point mutants) read by sequencing; higher = stronger binding; tyrosines were phosphorylated by kinases first; settings: peptide library: pTyr-Var
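Also: displayed peptides selected on beads carrying the immobilized SH2 domain, with library peptides lacking any tyrosine serving as negative controls.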

Enrichment score, inactive:
B1 1.01
B2 0.861
B3 0.722
B4 0.691
B5 0.784
B6 0.393
B7 1.49
B8 2.28
B9 1.89
B10 0.97
B11 0.694
B12 0.555
B13 2.74
B14 0.674
B15 2.12
B16 0.688
B17 0.817
B18 0.564
B19 0.95

target: SHP2 C-SH2 domain wild-type; experiment: as above; settings: peptide library: pTyr-Var

Enrichment score, inactive:
B1 0.771
B2 0.881
B3 0.838
B4 0.682
B5 1
B6 0.399
B7 1.49
B8 2.03
B9 2.47
B10 1.08
B11 0.602
B12 0.321
B13 2.53
B14 0.778
B15 1.98
B16 0.574
B17 0.713
B18 0.604
B19 0.75

target: SHP2 N-SH2 domain L43F; experiment: as above; settings: peptide library: pTyr-Var

Enrichment score, inactive:
B1 0.838
B2 0.735
B3 0.746
B4 0.477
B5 0.757
B6 0.429
B7 1.55
B8 1.89
B9 1.69
B10 1.1
B11 0.705
B12 0.405
B13 2.62
B14 0.664
B15 2.29
B16 0.537
B17 0.8
B18 0.535
B19 0.522

target: SHP2 N-SH2 domain T42A; experiment: as above; settings: peptide library: pTyr-Var

Enrichment score, inactive:
B1 0.901
B2 0.774
B3 0.586
B4 0.54
B5 0.762
B6 0.438
B7 1.07
B8 2.77
B9 2.36
B10 0.799
B11 0.565
B12 0.438
B13 1.96
B14 0.703
B15 2.22
B16 0.429
B17 0.57
B18 0.583
B19 0.562

target: SHP2 N-SH2 domain T52S; experiment: as above; settings: peptide library: pTyr-Var

Enrichment score, inactive:
B1 0.902
B2 0.709
B3 0.725
B4 0.467
B5 0.867
B6 0.544
B7 1.1
B8 1.71
B9 2
B10 1.3
B11 0.992
B12 0.349
B13 2.41
B14 0.718
B15 2.11
B16 0.45
B17 0.542
B18 0.592
B19 0.789

target: SHP2 N-SH2 domain wild-type; experiment: as above; settings: peptide library: pTyr-Var

Enrichment score, inactive:
B1 0.935
B2 1.24
B3 0.772
B4 0.699
B5 0.843
B6 0.472
B7 1.41
B8 2.63
B9 2.02
B10 1.11
B11 0.597
B12 1.16
B13 2.17
B14 0.579
B15 1.89
B16 0.605
B17 0.986
B18 0.678
B19 0.855
